Assay results published in PMC2991254.
These are yes or no findings as the source states them, for the method shown. Some results given as binding are weak or reduced against the parent protein; the word gives no strength.

The chains behind the UniProt entries cited, without tags or fusion partners. Where a name states a change or a piece, a line headed by the entry shows the natural chain unless it says otherwise. A line that says so, or that is headed by a name, gives the form on record, which may keep a tag or linker.
UniProt P29384: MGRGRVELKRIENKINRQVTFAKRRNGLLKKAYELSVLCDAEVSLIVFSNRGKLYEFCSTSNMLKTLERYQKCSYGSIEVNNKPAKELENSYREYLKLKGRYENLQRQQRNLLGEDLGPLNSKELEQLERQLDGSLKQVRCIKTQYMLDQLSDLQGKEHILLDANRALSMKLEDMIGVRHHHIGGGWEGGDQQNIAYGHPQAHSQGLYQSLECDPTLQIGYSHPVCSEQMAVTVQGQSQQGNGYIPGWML
UniProt Q9FIS1: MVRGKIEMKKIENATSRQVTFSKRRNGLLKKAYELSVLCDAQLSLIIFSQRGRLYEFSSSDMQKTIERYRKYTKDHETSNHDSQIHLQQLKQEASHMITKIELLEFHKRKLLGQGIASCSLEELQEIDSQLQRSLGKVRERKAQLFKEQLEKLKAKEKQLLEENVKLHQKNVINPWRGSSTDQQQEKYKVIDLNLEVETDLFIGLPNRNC
UniProt P29382: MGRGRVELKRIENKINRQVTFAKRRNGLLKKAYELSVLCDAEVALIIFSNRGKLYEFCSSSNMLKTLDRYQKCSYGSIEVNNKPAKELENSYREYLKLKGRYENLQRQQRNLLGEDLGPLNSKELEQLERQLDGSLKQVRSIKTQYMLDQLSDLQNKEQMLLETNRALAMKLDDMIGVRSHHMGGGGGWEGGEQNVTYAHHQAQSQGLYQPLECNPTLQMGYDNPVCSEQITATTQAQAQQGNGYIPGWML
UniProt Q9SI38: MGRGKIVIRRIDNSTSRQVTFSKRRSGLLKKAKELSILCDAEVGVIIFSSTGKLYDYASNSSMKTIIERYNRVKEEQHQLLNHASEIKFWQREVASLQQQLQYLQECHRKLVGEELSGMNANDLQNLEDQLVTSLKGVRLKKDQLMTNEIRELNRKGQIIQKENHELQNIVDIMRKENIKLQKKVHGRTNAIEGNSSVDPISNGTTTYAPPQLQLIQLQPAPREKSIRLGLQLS
UniProt A2RVQ5: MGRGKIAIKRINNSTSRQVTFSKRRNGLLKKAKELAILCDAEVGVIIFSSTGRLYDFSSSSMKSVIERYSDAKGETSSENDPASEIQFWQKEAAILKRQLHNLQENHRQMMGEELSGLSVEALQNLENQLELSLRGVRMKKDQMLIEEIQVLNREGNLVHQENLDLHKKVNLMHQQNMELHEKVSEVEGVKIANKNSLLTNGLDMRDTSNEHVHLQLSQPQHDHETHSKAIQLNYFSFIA
UniProt P17839: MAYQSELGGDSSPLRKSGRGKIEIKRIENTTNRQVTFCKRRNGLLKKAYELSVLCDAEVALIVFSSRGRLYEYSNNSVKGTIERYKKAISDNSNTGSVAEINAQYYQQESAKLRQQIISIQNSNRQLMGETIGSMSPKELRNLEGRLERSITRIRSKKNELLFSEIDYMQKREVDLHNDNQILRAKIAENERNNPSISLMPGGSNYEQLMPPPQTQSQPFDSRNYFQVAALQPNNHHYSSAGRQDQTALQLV
UniProt Q38876: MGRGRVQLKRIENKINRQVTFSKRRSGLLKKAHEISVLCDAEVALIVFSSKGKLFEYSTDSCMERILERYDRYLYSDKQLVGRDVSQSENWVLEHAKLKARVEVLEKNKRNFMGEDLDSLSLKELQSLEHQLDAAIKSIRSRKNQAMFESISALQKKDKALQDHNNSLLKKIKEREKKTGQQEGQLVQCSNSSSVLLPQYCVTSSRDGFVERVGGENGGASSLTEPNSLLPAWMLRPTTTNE
UniProt O82743: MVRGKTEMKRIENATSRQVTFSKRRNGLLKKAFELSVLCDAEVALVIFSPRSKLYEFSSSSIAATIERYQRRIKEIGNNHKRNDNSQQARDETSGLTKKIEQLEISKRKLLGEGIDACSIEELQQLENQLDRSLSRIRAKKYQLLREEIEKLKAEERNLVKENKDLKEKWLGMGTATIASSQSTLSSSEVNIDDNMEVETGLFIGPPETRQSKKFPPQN
UniProt Q9S7Q7: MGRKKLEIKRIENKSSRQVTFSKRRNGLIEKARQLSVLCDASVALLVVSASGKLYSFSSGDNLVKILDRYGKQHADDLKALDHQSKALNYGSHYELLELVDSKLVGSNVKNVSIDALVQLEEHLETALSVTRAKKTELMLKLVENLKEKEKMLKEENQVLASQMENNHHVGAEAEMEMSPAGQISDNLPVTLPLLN
UniProt O64645: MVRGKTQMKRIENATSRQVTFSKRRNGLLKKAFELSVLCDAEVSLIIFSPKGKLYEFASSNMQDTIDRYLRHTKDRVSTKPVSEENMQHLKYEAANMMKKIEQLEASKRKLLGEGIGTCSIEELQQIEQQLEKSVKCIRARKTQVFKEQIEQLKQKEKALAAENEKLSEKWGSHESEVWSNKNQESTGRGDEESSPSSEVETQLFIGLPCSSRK
SOC1 MQD62-64SIPK (O64645, form named): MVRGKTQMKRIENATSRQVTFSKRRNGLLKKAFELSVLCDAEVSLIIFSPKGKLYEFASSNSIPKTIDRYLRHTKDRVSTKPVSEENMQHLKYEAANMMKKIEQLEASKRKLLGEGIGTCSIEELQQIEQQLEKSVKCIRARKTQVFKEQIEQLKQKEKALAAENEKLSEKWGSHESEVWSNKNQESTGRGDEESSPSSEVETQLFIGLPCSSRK
UniProt O82794: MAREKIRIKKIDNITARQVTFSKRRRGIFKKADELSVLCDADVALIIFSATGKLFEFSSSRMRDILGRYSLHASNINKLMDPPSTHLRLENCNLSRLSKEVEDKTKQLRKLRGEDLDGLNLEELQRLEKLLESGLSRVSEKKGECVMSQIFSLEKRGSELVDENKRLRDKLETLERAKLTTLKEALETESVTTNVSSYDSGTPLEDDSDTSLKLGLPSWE
UniProt Q38836: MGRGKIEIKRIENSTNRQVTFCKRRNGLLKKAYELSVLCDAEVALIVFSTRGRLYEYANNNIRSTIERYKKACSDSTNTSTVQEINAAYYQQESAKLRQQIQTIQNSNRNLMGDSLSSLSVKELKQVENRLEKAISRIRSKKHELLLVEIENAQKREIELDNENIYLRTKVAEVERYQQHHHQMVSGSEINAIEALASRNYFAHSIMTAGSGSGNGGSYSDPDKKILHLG

Assays:
Assay in all cases: two-hybrid; matrix-based yeast two-hybrid, GAL4-AD and GAL4-BD fusions (pDEST22, pDEST32), in duplicate, at least two reporter genes; medium lacking Leu, Trp and His with 1 mM 3-amino-1,2,4-triazole, growth scored after 4 days at 20°C
[1] = biological target: SEP2 (Arabidopsis thaliana) (UniProt P29384)
[2] = biological target: AGL42 (Arabidopsis thaliana) (UniProt Q9FIS1)
[3] = biological target: SEP1 (Arabidopsis thaliana) (UniProt P29382)
[4] = biological target: ANR1 (Arabidopsis thaliana) (UniProt Q9SI38)
[5] = biological target: AGL16 (Arabidopsis thaliana) (UniProt A2RVQ5)
[6] = biological target: AGAMOUS (Arabidopsis thaliana) (UniProt P17839)
[7] = biological target: FRUITFUL (Arabidopsis thaliana) (UniProt Q38876)
[8] = biological target: AGL19 (Arabidopsis thaliana) (UniProt O82743)
[9] = biological target: FLOWERING LOCUS C (Arabidopsis thaliana) (UniProt Q9S7Q7)
[10] = biological target: SUPPRESSOR OF OVEREXPRESSION OF CO 1 (Arabidopsis thaliana) (UniProt O64645)
[11] = biological target: T1, XAL1 (Arabidopsis thaliana) (UniProt Q38841)
T1 sequence: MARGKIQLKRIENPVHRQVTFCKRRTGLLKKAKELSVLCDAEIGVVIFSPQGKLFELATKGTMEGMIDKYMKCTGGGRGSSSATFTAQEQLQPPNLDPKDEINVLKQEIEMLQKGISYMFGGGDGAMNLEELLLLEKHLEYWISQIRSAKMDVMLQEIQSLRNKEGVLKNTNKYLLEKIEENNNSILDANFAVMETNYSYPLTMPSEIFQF

[12] = biological target: AGAMOUS-LIKE24 (Arabidopsis thaliana) (UniProt O82794)
… (Arabidopsis thaliana) = … (Arabidopsis thaliana) (UniProt Q38836)

Row | binding [1] | binding [2] | binding [3] | binding [4] | binding [5] | binding [6] | binding [7] | binding [8] | binding [9] | binding [10] | binding [11] | binding [12] | binding (… (Arabidopsis thaliana)) | Substance
1 | no binding | no binding | binds | no binding | no binding | no binding | no binding | no binding | no binding | binds | no binding | binds | no binding | SOC1 MQD62-64SIPK (from UniProt O64645 1-214)
2 | binds | binds | binds | no binding | binds | binds | binds | no binding | binds | binds | no binding | no binding | no binding | SVP1 C58S (from UniProt Q9FVC1 1-240)
3 | no binding | no binding | no binding | no binding | binds | no binding | no binding | binds | no binding | binds | no binding | no binding | no binding | SVP1 C58S/S61R (from UniProt Q9FVC1 1-240)
4 | no binding | no binding | no binding | no binding | no binding | no binding | no binding | no binding | no binding | binds | no binding | no binding | no binding | SVP1 EFCSSS56-61D (from UniProt Q9FVC1 1-240)
5 | binds | no binding | binds | no binding | no binding | binds | no binding | no binding | no binding | binds | no binding | no binding | no binding | SVP1 S61R (from UniProt Q9FVC1 1-240)
6 | binds | binds | binds | binds | binds | binds | binds | no binding | binds | binds | no binding | no binding | no binding | SVP1 SS227-228MF (from UniProt Q9FVC1 1-240)
